Source: the RNAGym collection of RNA variant scans (doi:10.7554/elife.90254)
Read counts are not given, so values of variants with three or more changes are uncertain.

B1: OR4K15 (parent)
chain: GUUAACGGUCAUAGGCCAUGGAAACUAGGAGCACCAUUUCGCUGCCAGUGAAGAAAUGAACAAAGAAAAUCUGGGCCAGGCAGGCAUCAAAAGAAAUAGUCUUGCGCUCAACCAGAAAGUCUGUAAUCAUUUUAAGGGUA

Variants of: B1
Test: self-cleavage, relative activity (ratio to wild type); higher = more cleavage; in vitro, sequencing; the parent is a self-cleaving ribozyme

Question: With GCUAACGGCCAUAGGCCAUGGAAACUAGGAGCACCAUUUCGCUGCCAGUGAAGAAAUGAACAAAGAAAAUCUGGGCCAGGCAGGCAUCAAAUGAAAUAGUCUUGCGCUCAACCAGAAAGUCUGUAAUCGUUUUAAGGGUA as the variant, how does the self-cleavage read?
Answer: 0.78

Question: With GCUAACGGCCAUAGGCCAUGGAAACUAGGAGCACCACUUCGCUGCCAGUGAAGAAAUGGACAAAGAAAAUCUGGGCCAGGCAGGCAUCAAAAGAAAUAGUCUUGCGCUCAACCAGAAAGUCUGUAAUCAUUUUAAGGGUA as the variant, how does the self-cleavage read?
Answer: 1.76

Question: With GCCAACGGUCAUAGGCCAUGGAAACUAGGAGCACCAUUCCGCUGCCAGUGAAGAAAUGAACAAAGAAAAUCUGGGCCAGGCAGGCAUCAAAAGAAAUAGUCUUGCGCUCAACCAGAAAGUCUGUAAUCAUUUUAGGGGUA as the variant, how does the self-cleavage read?
Answer: 0.67

Question: Which self-cleavage does the source give for GCUAACGGUCAUAGGCCACGGAAACUGGGAGCACCAUUUCGCUGCCAGUGAAGAAAUGAACAAAGAAAAUCUGGGCCAGGCAGGCAUCAAAAGAAAUAGUCUUACGCUCAACCAGAAAGUCUGUAAUCAUUUUAAGGGUA here?
Answer: 0.09

Question: With GCCAACGGUCAUAGGCCAUGGAAACUAGGAGCACCAUUUCGCUGCCAGUGAAGAAAUGAACAAAGAAAAUCUGGGCCAGGCAGGCAUCAAAAGGAAUAGUCUUGCGCUCAACCAGAAAGUCUGUAAUCAUUUUAAGGGUA as the variant, how does the self-cleavage read?
Answer: 1.1

Question: With GCUAACGGCCAUAGGCCAUGGAAACUAGGUGCACCAUUUCGCUGCCAGUGAAGAAAUGAACAAAGAAAAUCUGGGCCAGGCAGGCAUCAAAAGAAAUAGUCUUGCGCUCAACCAGAAAGUCUGUAAUCAUUUUAAGGGUA as the variant, how does the self-cleavage read?
Answer: 1.86

Question: With GCUAACGGUCACAGGCCAUGGAAACUAGGAGCACCAUUUCGCUGCCAGUGAGUAAAUGAACAAAGAAAAUCUGGGCCAGGCGGGCAUCAAAAGAAAUAGUCUUGCGCUCAACCAGAAAGUCUGUAAUCAUUUUAAGGGUA as the variant, how does the self-cleavage read?
Answer: 1.37

Question: With GCUAACGGCCAUAGGCCAUGGAAACUAGGAGCACCAUUUCGCUGCUAGUGAAGAAAUGAACAAAGAGAACCUGGGCCAGGCAGGCAUCAAAGGGAAUAGUCUUGCGCUCAACCAGAAAGUCUGUAAUCAUUUUAAGGGUA as the variant, how does the self-cleavage read?
Answer: 0.65

Question: With GCUAACGGUCAUAGGCCACGGAAACUAGGAGCACCAUCUCGCUGCCAGUGAAGAAAUGAACAAAGGAAAUCUGGGCCAGGCAGGCAUCAAAAGAAAUAGUCUUGCGCUCAACCAGAAAGUCUGUAAUCAUUUUAAGGGUA as the variant, how does the self-cleavage read?
Answer: 0.89

Question: With GCUAACGGUCACAGGCCGUGGAAACUAGGAGCACCAUUUCGCUGCCAGUGAAGAAAUGAACAAAGAAAAUCUGGGCCAGGCAGGCAUCAAAAGAAAUAGUCUUGCGCUCAACCUGAAAGUCUGUAAUCAUUUUAAGGGUA as the variant, how does the self-cleavage read?
Answer: 0.08

Question: Which self-cleavage does the source give for GCUAACGGUCACAGGCCAUGGAAACUAGGAGCACCAUUUCGCUGCCAGUGAAGAAGUGAACAAAGAAAAUCCGGGCCAGGCAGGCAUCGAAAGAAAUAGUCUUGCGCUCAACCAGAAAGUCUGUAAUCAUUUUAAGGGUA here?
Answer: 0.28

Question: Which self-cleavage does the source give for GCUAACGGUCACAGGCCAUGGAAGCUAGGAGCACCAUUUCGCUGCCAGUGAAGAAAUGAACAAAGAAAAACUGGGCCAGGCAGGCAUCAAAAGAAAUAGUCUUGCGCUCAACCAGAAAGUCUGUAAUCAUUUUAAGGGUA here?
Answer: 1.18

Question: Which self-cleavage does the source give for GCUAACGGCCAUAGGCCAUGGGAACUAGGAGCACCAUUUCGCUGCCAGUGAAGAAAUGAACAAAGAAAAUCUGGGCCAGGCAGGCAUCAAAAGAAAUAGUCUUGCGCUCAACCAGAAAGUCUGUAAUCAUUUUAAGGGUA here?
Answer: 1.36

Question: Which self-cleavage does the source give for GCUAACGGCCAUAGGCCAUGGAAACUAGGAGCACCAUUUCGCUGCCAGUGAAGAAAUGAACAAAGAAAAUCCGGGCCAGGCAGGCAUCAAAAGAAAUAGACUUGCGCUCGACCAGAAAGUCUGUAAUCAUUUUAAGGGUA here?
Answer: 0.08

Question: Which self-cleavage does the source give for GCUAACGGUCAUAGGCCACGGAAACUAGGAGCACCAUUUCGCUGCCAGUGAAGAAAUGAACAAAGAAAAUCUGGGCCCGGCAGGCAUUAAAAGAAAUAGUCCUGCGCCCAACCAGAAAGUCUGUAAUCAUUUUAAGGGUA here?
Answer: 0.06

Question: With GCUAACGGCCAUAGGCCAUGGGAACUAGGGGCACCAUUUCGCUGCCAGUGAAGAAAUGAACAAAGAAAAUCUGGGCCAGGCAGGCAUCAAAAGAAAUAGUCUUGCGCUCAACCAGAAAGUCUGUAAUCAUUUUAAGGGUA as the variant, how does the self-cleavage read?
Answer: 1.68

Question: For GCUAACGGCCAUAGGCCAUGGAAACUAGGAGCACCAUUUCGCUGCCAGUGAAGAAAUGAACAAAGAAAAUCCGGGCCAGGCAGGCAUCAAAAGAAAUAGCCUUGCGCUCAACCAGGAAGUCUGUAAUCAUUUUAAGGGUA, which self-cleavage is on record?
Answer: 0.82

Question: With GCUAACGGUCAUAGGCCAGGGAAACUAGGAGCACCUUUUCGCUGCCAGCGAAGAAAUGAACAAAGAAGAUCUGGGCCAGGCAGGCAUCAAAAGAAAUAGUCUUGCGCUCAACCAGAAGGUCUGUAAUCAUUUUAAGGGUA as the variant, how does the self-cleavage read?
Answer: 0.76

Question: For GCGAACGGCCAUAGGCCAUGGAAACUAGGAGCACCAUUUCGCUGCCAGUGAAGAAAUGAACAAAGAAAAUCUGGGCCAGGCAGGCAUCAAAAGAAAUAGUCUUGCGCUCAACCAGAAAGUCUGUAAUCACUUUAAGGGUA, which self-cleavage is on record?
Answer: 1.09

Question: For GCUAACGGUCAAAGGCCAUGGAAACUAGGAGCACCAUUUCGCUGCCAGUGACGAAAUGAUCAAGGAAAAUCUGGGCCAGGCAGGCAUCAGAAGAAGUAGUCUUGCGCUCAACCAGAAAGUCUGUAAUCAUUUUAAGGGUA, which self-cleavage is on record?
Answer: 0.5

Question: With GCUAACGGCCAUAGGCCAUGGAAACUAGGAGCACCAUUUCGCUGCCGGUGAAGAAAUGAACGAAGAAAAUCUGGGCCAGGCAGGCAUCAAAAGAAAUAGUCUUGCGCUCAACCAGAAAGUCUGUAAUCAUUUUAAGGGUA as the variant, how does the self-cleavage read?
Answer: 1.33
